{"source": "PubChem BioAssay AID1030", "about": "(National Center for Advancing Translational Sciences (NCATS), 2008)", "note": "About 16,000 (7.3%) of roughly 220,000 compounds were called active. Inconclusive results, whose numbers are uncertain, are shown with a selection of clear calls. The call rests on the fitted dose curve; in most records, active means well fitted inhibition curve with a large enough effect (not every such curve was filed as active); inconclusive means small, poorly fitted or top-dose-only effect, or another doubt; inactive means no such curve, though single readings can be large or run the other way. Potencies of inconclusive entries are left out as doubtful fits. Potency means the concentration at half of the fitted maximal effect; tags describe the fitted curve by direction and shape."}
{"target": "Aldehyde dehydrogenase 1A1 (Homo sapiens) (UniProt P00352)", "sequence (P00352 whole entry, looked up)": "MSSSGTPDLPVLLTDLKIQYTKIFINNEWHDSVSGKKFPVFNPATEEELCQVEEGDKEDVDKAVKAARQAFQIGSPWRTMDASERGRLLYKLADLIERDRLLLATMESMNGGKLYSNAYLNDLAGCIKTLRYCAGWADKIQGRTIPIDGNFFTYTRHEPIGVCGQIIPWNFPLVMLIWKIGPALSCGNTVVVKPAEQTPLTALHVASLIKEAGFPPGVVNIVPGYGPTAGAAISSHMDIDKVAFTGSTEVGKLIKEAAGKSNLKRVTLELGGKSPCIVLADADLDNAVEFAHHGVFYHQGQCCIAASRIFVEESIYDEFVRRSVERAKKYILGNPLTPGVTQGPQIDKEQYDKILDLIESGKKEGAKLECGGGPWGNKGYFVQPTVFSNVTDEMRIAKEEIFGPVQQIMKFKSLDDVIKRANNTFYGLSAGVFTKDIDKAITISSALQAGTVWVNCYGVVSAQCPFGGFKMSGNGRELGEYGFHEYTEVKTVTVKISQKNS", "assay": "qHTS Assay for Inhibitors of Aldehyde Dehydrogenase 1 (ALDH1A1);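 on activity, negative = inhibition: plate controls were no enzyme wells and a reference inhibitor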", "details": "Purified ALDH1A1, NADH fluorescence, propionaldehyde substrate; series mostly up to 75.3 µM; activity, negative = inhibition: at the top concentration"}
{"smiles": "O=C(Cc1ccc(S(=O)(=O)N2CCOCC2)s1)Nc1ccccc1N1CCOCC1", "Potency": "inconclusive [inhibitor, single point]"}
{"smiles": "CS(=O)(=O)N(Cc1ccccc1Cl)c1ccc(C(=O)NCc2cccnc2)cc1", "activity, negative = inhibition": "inactive: -5.16%"}
{"smiles": "O=C(/C=C/c1ccc(Cl)cc1)Nn1c(-c2cccs2)nc2ccccc2c1=O", "Potency": "inconclusive [inhibitor, single point]"}
{"smiles": "Cc1ccc(-c2cc(C(=O)Nc3c(C)n(C)n(-c4ccccc4)c3=O)[nH]n2)c(O)c1", "activity, negative = inhibition": "inactive: -4.51%"}
{"smiles": "Cc1ccccc1S(=O)(=O)NCc1cccnc1", "activity, negative = inhibition": "inactive: -5.62%"}
{"smiles": "COc1ccc(OC)c(S(=O)(=O)Nc2ccc3oc4c(c3c2)C(=O)CCC4)c1", "Potency": "inconclusive [inhibitor, single point]"}
{"smiles": "O=C(Oc1coc(CSc2nnc(NC(=O)C3CC3)s2)cc1=O)c1ccccc1", "Potency": "inconclusive [inhibitor, partial curve, poor fit]"}
{"smiles": "CN(CC(=O)Nc1ccc(F)cc1)c1ccc(S(=O)(=O)N2CCCCC2)cc1[N+](=O)[O-]", "Potency": "inconclusive [inhibitor, partial curve]"}
{"smiles": "O=C(O)C(Cl)(c1ccccc1)c1ccccc1", "activity, negative = inhibition": "inactive: -9.74% [at 13.5 µM]"}
{"smiles": "N#C/C(=C\\c1ccc(N2CCOCC2)cc1)c1ccccc1", "Potency": "inconclusive [inhibitor, partial curve]"}
{"smiles": "CCN1CCCC(OC(=O)c2cc(-c3ccc(C)cc3)nc3ccccc23)C1", "note": "(stereo unspecified)", "Potency": "inconclusive [inhibitor, partial curve]"}
{"smiles": "Cc1ccc(N2C(N)=C(C#N)C(c3cccs3)C3=C2CC(C)(C)CC3=O)cc1", "note": "(stereo unspecified)", "Potency": "inconclusive [inhibitor, partial curve]"}
{"smiles": "O=C(O)C1CCCCC1C(=O)Nc1ccc2c(c1)OCCO2", "note": "(stereo unspecified)", "activity, negative = inhibition": "inactive: 18.4%"}
{"smiles": "O=C(c1ccccc1F)N1CCN(C2CCC(c3ccccc3)CC2)CC1", "note": "(stereo unspecified)", "Potency": "inconclusive [inhibitor, single point]"}
{"smiles": "C=CCn1c(CSCc2ccccc2)nnc1SCC(=O)NCc1ccccc1", "Potency": "inconclusive [inhibitor, single point]"}
{"smiles": "Cc1ccc(-c2csc(NC(=O)CSc3nc(C)cs3)n2)cc1", "Potency": "inconclusive [inhibitor, single point]"}
{"smiles": "O=C(Cc1ccc(Cl)cc1)Nc1ncc([N+](=O)[O-])s1", "Potency": "inconclusive [inhibitor, single point]"}
{"smiles": "Cc1ccc(C)c(NC(=O)CSc2nnc(Cc3cccn3C)n2-c2ccc(F)cc2)c1", "Potency": "inconclusive [inhibitor, single point]"}
{"smiles": "Cc1ccc(SCCC(=O)NCc2ccco2)cc1", "activity, negative = inhibition": "inactive: -14.4%"}
{"smiles": "C=C1c2cc(OC)ccc2NC(=O)N1CC", "Potency": "inconclusive [inhibitor, single point]"}
{"smiles": "CCOc1ccc(C2CC(=O)NC(SCC(=O)OC)=C2C#N)cc1", "note": "(stereo unspecified)", "activity, negative = inhibition": "inactive: -4.75%"}
{"smiles": "Nc1nc(-c2ccc(Cl)cc2)nn1C(=O)c1ccco1", "activity, negative = inhibition": "inactive: -16.7%"}
{"smiles": "O=C(CNC(=O)c1ccccc1C(=O)O)c1ccccc1", "Potency": "active: 25.1 µM"}
{"smiles": "COCCNC(=O)CCCn1c(=O)c2ccccc2n(CC(=O)NCCC2=CCCCC2)c1=O", "Potency": "inconclusive [inhibitor, partial curve]"}
{"smiles": "CC(=O)NCCC(=O)Nc1cc(S(=O)(=O)N2CCOCC2)ccc1N1CCOCC1", "activity, negative = inhibition": "inactive: 0.246%"}
{"smiles": "CCCC1=[N+](CC(=O)c2ccccc2)CCn2c(C)ccc21", "activity, negative = inhibition": "inactive: -2.1%"}
{"smiles": "Cc1ccc(NS(=O)(=O)c2cc3c4c(cccc4c2)C(=O)NC3=O)cc1C", "Potency": "inconclusive [inhibitor, partial curve]"}
{"smiles": "C=CCn1c(COc2ccccc2)nnc1SCC(=O)O", "activity, negative = inhibition": "inactive: 9.39%"}
{"smiles": "O=C(COC(=O)c1ccccc1)Nc1cccc(S(=O)(=O)N2CCOCC2)c1", "activity, negative = inhibition": "inactive: 2.02%"}
{"smiles": "COc1cc(-c2oc3cc(O)ccc3c(=O)c2O)ccc1O", "Potency": "inconclusive [inhibitor, partial curve]"}
{"smiles": "CC(C)CN(C(=O)COC(=O)Cc1c[nH]c2ccccc12)C1CCS(=O)(=O)C1", "note": "(stereo unspecified)", "activity, negative = inhibition": "inactive: -2.12%"}
{"smiles": "Cc1ccc(S(=O)(=O)N2CCOCC2)cc1NC(=O)CN1CCC(Cc2ccccc2)CC1", "Potency": "inconclusive [inhibitor, partial curve]"}
{"smiles": "CS(=O)(=O)N1CCN(c2ccccc2NC(=O)c2ccc(-c3ccc(Cl)cc3Cl)o2)CC1", "Potency": "inconclusive [inhibitor, partial curve]"}
{"smiles": "Nc1nn(-c2ccccc2)c(N)c1N=Nc1ccccc1", "activity, negative = inhibition": "inactive: 5.44%"}
{"smiles": "CC[N+](CC)(CC#Cc1ccccc1)CC(=O)c1ccc(Cl)cc1", "Potency": "inconclusive [inhibitor, partial curve]"}
{"smiles": "COc1ccc(OC(=O)c2cnc3n(c2=O)CCS3)cc1", "activity, negative = inhibition": "inactive: 3.97%"}
{"smiles": "COC(=O)c1ccccc1NC(=S)NC(=O)COc1ccccc1", "Potency": "inconclusive [inhibitor, single point]"}
{"smiles": "O=C(COC(=O)/C=C/c1ccc(S(=O)(=O)N2CCOCC2)cc1)NCc1ccc2c(c1)OCO2", "Potency": "inconclusive [inhibitor, single point]"}
{"smiles": "O=C1c2ccccc2NC2(CCCCC2)N1c1ccc(O)cc1", "Potency": "inconclusive [inhibitor, single point]"}
{"smiles": "COCC(C)n1c(-c2ccc3c(c2)NC(=O)CO3)csc1=Nc1ccc(OC(F)F)cc1", "note": "(stereo unspecified)", "Potency": "inconclusive [inhibitor, partial curve]"}
{"smiles": "COc1cc2cc(/C=C/C(=O)c3ccco3)c(Cl)nc2cc1OC", "Potency": "inconclusive [inhibitor, single point]"}
{"smiles": "O=C1c2ccccc2C(=O)N1CC(O)CNc1ccc(Br)cc1", "note": "(stereo unspecified)", "Potency": "inconclusive [inhibitor, single point]"}
{"smiles": "O=P(Cc1cccc[n+]1[O-])(c1ccccc1)c1ccccc1", "Potency": "inconclusive [inhibitor, single point]"}
{"smiles": "Cc1cc(C)c2nc(NC(=O)c3ccc4c(=O)n5c(nc4c3)CCCCC5)sc2c1", "Potency": "inconclusive [inhibitor, partial curve, poor fit]"}
{"smiles": "O=C(OCC(=O)N1CCN(c2ccccc2)CC1)c1ccccn1", "activity, negative = inhibition": "inactive: -0.136%"}
{"smiles": "CCNc1ncc2nc(C)c(=O)n(Cc3ccc(F)cc3)c2n1", "Potency": "inconclusive [inhibitor, full curve]"}
{"smiles": "Cc1nc2ncnn2c(C)c1CCC(=O)N1CCOCC1", "activity, negative = inhibition": "inactive: 4.9%"}
{"smiles": "Cc1ccc(Sc2ncccc2C(=O)O)cc1", "Potency": "inconclusive [inhibitor, single point]"}
{"smiles": "CCCNC(=O)COc1cccc(C(=O)NCc2ccccc2)c1", "Potency": "inconclusive [inhibitor, single point]"}
{"smiles": "O=C(c1cccc(-c2nnc(-c3ccccc3)o2)c1)N1CCCCC1", "Potency": "inconclusive [inhibitor, single point]"}
{"smiles": "Cc1nc2ncnn2c(C)c1CCC(=O)NCCC1=CCCCC1", "Potency": "inconclusive [inhibitor, single point]"}
{"smiles": "CCCCC1=CC2=C(c3ccco3)C(=O)C(C)(OC(=O)c3ccc(OC)cc3)C(=O)C2=CN1CCc1ccccn1", "note": "(stereo unspecified)", "Potency": "inconclusive [inhibitor, single point]"}
{"smiles": "N#CCCn1cc(C(=O)Nc2ccc([N+](=O)[O-])cc2)c(-c2cccs2)n1", "Potency": "active: 22.4 µM"}
{"smiles": "CN(C(=O)c1c(Cl)nc2sccn12)C1CCCCC1", "Potency": "inconclusive [inhibitor, partial curve]"}
{"smiles": "CCOC(=O)N1CCN(C(=O)COc2ccc3c(c2)C(=O)CC(C)(C)O3)CC1", "Potency": "inconclusive [inhibitor, partial curve]"}
{"smiles": "CCOC(=O)C1Cn2c(nc3c(c2=O)C(C)(CC)Cc2ccccc2-3)S1", "note": "(stereo unspecified)", "Potency": "inconclusive [inhibitor, single point]"}
{"smiles": "CN1C(=O)c2ccc(NC(=O)c3c(F)c(F)c(F)c(F)c3F)cc2C1=O", "Potency": "inconclusive [inhibitor, partial curve]"}
{"smiles": "COc1ccc(NC(=O)CSc2nc3c(cc2C#N)CN(C)CC3)cc1", "Potency": "inconclusive [inhibitor, single point]"}
{"smiles": "Cn1c(O)c(N=NC(=O)CNC(=O)c2ccco2)c2ccccc21", "activity, negative = inhibition": "inactive: -1.62%"}
{"smiles": "Cc1nnc(SCCn2c(N3CC(C)CC(C)C3)nc3c2c(=O)[nH]c(=O)n3C)s1", "note": "(stereo unspecified)", "Potency": "inconclusive [inhibitor, full curve]"}
{"smiles": "Cc1nnc(NC(=O)CCN2C(=O)/C(=C\\c3ccccc3)SC2=S)s1", "activity, negative = inhibition": "inactive: 4.53%"}
{"smiles": "CCOc1ccc(N(C(C)C(=O)Nc2ccc(OC)cc2)S(C)(=O)=O)cc1", "note": "(stereo unspecified)", "Potency": "inconclusive [inhibitor, single point]"}
{"smiles": "CN1CCN(C(=S)NC(=O)c2ccc(C(C)(C)C)cc2)CC1", "activity, negative = inhibition": "inactive: 4.58%"}
{"smiles": "COc1ccc(NS(=O)(=O)c2ccc(N/N=C/c3ccc(N4CCOCC4)cc3)c([N+](=O)[O-])c2)cc1", "activity, negative = inhibition": "inactive: 1.49%"}
{"smiles": "COc1ccc(NC(=S)N/C(=N/S(=O)(=O)c2ccc(C)cc2)c2ccccc2)cc1", "Potency": "inconclusive [inhibitor, single point]"}
{"smiles": "O=C(O)C1C(C(=O)Nc2ccc(Cl)cc2)C2C=CC1C21CC1", "note": "(stereo unspecified)", "Potency": "inconclusive [inhibitor, single point]"}
{"smiles": "CCOC(=O)C1=C(N)OC2=C(C(=O)CC(C)(C)C2)C1c1ccc(C)s1", "note": "(stereo unspecified)", "Potency": "active: 12.6 µM"}
{"smiles": "CSCC[C@H](NC(=O)Nc1ccc(Oc2ccccc2)cc1)C(=O)O", "activity, negative = inhibition": "inactive: -6.01%"}
{"smiles": "Cn1cccc1/C=C1\\Cc2ccccc2C1=O", "Potency": "active: 11.2 µM"}
{"smiles": "COc1ccc(C(F)(F)F)cc1N/C=C\\c1nnnn1-c1ccc(C)cc1", "Potency": "active: 25.1 µM"}
{"smiles": "C=CCc1c(C)[nH]c2c(OC)cccc2c1=S", "Potency": "inconclusive [inhibitor, single point]"}
